Test results: the RNAGym collection of RNA variant scans (doi:10.7554/elife.90254)
The source gives no read counts; variants with many changes may rest on few reads.

B1: LINE1-mini (parent)
chain: GGCAGAGCUCAACACAGCGUGGCAAAGUGGCUGUGGCUAGACUGCC

Variants of: B1
Assay: self-cleavage, relative activity (ratio to wild type); higher = more cleavage; in vitro, sequencing; the parent is a self-cleaving ribozyme

| Variant | self-cleavage |
| --- | --- |
| G5U G7A G21U | 0.29 |
| C10G C15A G21A C37G | 0.02 |
| A12C A14C G17C C23A U38G G40C | 0.01 |
| C3G A11U A16G | 0.04 |
| A4U G7C U34A | 0.08 |
| G27C U32C C46U | 0.45 |
| G5A C13U G17U U32A | 0.05 |
| A6C G27C G29U | 0.15 |
| A4U U20G G33A G40U C45U | 0.01 |
| C8A A12C U20C G33U | 0.05 |
| C13A G36A C42G | 0.01 |
| G7C C18A G19A A25G | 0.2 |
| U9G G22U C31G A41U C46U | 0.05 |
| G7U G19U G40A | 0 |
| G7U C23A U28A | 0.02 |
| C10A A24G G27C | 0.04 |
| C18U G36C A41C U43C C46U | 0.05 |
| G2U A16C A26G U38G | 0 |
| C18U U20A G27U G29U G35U | 0.14 |
| A6G C8U C10A C15G G36A C46A | 0.02 |
| G7A G30C A41U | 0.04 |
| C10U U20C U38C | 0.11 |
| U9C A11C G21U C31U | 0.03 |
| G19A U20C U38A | 0.01 |

| Variant | self-cleavage |
| --- | --- |
| A4G A16G G40U | 0.05 |
| G29U C31G U32G A41G C42A | 0.03 |
| A11U A14U C15U | 0.03 |
| C10G C13A C18G G22U G33C | 0.01 |
| C8U A11U C13G G27A G29U | 0.02 |
| C3A C8A U38C A41C | 0.62 |
| G7U A11U G21A G30A G44U | 0.05 |
| G21C G33C C42U | 0.03 |
| G1U G27C G29C U34G C42U C46U | 0.13 |
| A11U G36A C42A C45A | 0.01 |
| G1U A6G G7C | 0.01 |
| G21C U28A G40C | 0.02 |
| G7A C10G G22A C23G | 0.03 |
| C13A G19A U32A | 0.03 |
| G1A G19U C23A G35U | 0.11 |
| A6U C10A A12G G29U C37U | 0 |
| A4C G36A G40U | 0.01 |
| G2C U20G C23U C31G G35A A41G | 0.02 |
| U9G C15A U28G G40C | 0.04 |
| A6U C10A A25U | 0.07 |
| C10G A12C G35U G44U | 0.01 |
| C10G G19U U28C G30U | 0.27 |
| G1U C13A U38G | 0 |
| G1A C15G A24G | 0.04 |

| Variant | self-cleavage |
| --- | --- |
| A12G G21A G33A | 0.14 |
| G21A U32C G44C | 0.17 |
| A11G C15U G27U U32G A41G | 0.01 |
| G7A U9A A14U G19A G22U G36C | 0.05 |
| A6C C13U G29U G33A | 0.11 |
| C10A A11C G29U U34C | 0.02 |
| A16U G17C G21U | 1.18 |
| C8A A26G U28G | 0.1 |
| A39U G40U C45U | 0.21 |
| C3U G5U C15U | 0.13 |
| G7U C8A G22A G36U C45G | 0.58 |
| G1U G17A C18G G44U C45U | 0.03 |
| G5A C15U G29A G30U U43G G44C | 0.05 |
| G7C C8U U9A A16G C18A C42G | 0.22 |
| C8A U28A G36A | 0.14 |
| G30A C31A U32C G33U G44C C45U | 0.01 |
| G19C C31A C45U | 0.09 |
| G7C G22U C37A | 0.01 |
| C8U C13U C15A G33U A39C | 0.07 |
| G2C G5U G22C | 0.01 |
| A12C C13A U38G | 0 |
| C8G C18U G21U | 0.02 |
| G5A U20G C23G A24U C31A G33C | 0.04 |
| A4C G33C C37G A41G | 0 |

| Variant | self-cleavage |
| --- | --- |
| A12C C31A G35U | 0.02 |
| G2U C18A A25U A39G U43G C45A | 0 |
| G5U G17A G19U | 0.79 |
| G22U G30A G35A G36U A41C | 0.03 |
| G19C G21C A26G G36U U43A | 0.01 |
| A4U G29A U32A | 0.33 |
| G2A C3A U34G | 0.26 |
| G5C G29C U38G | 0.01 |
| C3U G7A A14C C18G G40U C45G | 0.09 |
| A11G C23G A41C | 0.02 |
| G1U C8U C13A C15U C37U C46A | 0.14 |
| U9G U20G C37G | 0.03 |
| A4U G5C A6C C37A | 0.14 |
| G1U C15U C18A | 0.03 |
| G5C A6G A12G G30U | 0.13 |
| C18U G19U C23U G33A | 0.01 |
| C8U C23U C31U | 0.38 |
| G17A G19C G22U A41U C42G | 0.02 |
| C3U G7C C23A U28A | 0.1 |
| A6C A24C A25G G33A | 0.07 |
| G2A C13U G36U | 0.09 |
| C10G A16U G44C | 0.03 |
| G5U C8U A16G | 0.32 |
| G17A C23U A41G | 0.09 |

| Variant | self-cleavage |
| --- | --- |
| G7C G35A G44U | 0.13 |
| A4G G17C U32G G33U C37G G44U | 0 |
| C10G G21U G27U G36U | 0.01 |
| C3A A16U C23U G40C | 0.08 |
| A11G G17A G21C U32A | 0 |
| A11U G36C C46U | 0.03 |
| G21U A26G G33U A39U | 0.03 |
| G19U A26C A39U | 0.01 |
| U9A C13A G33U G44C C46U | 0.02 |
| U20C C37U C45A C46G | 0.01 |
| G2A C10G U43G | 0.01 |
| A14U U43C C45U | 0.04 |
| C13U G33U C46G | 0.05 |
| A12C C15G A26U G33C | 0.04 |
| C10A A12C U43G G44A C45A | 0 |
| G5U G17U A26U | 0.01 |
| A14U C18A C37A | 0.07 |
| U28G G35U C42G C46G | 0.02 |
| C8G G36U U38C C42U | 0.04 |
| A14U G22U G29A | 1.69 |
| A25G A39G G40C | 0.02 |
| C18A G36U C42G U43A G44C | 0.01 |
| C3A C10U A12U A16U A26U A39G | 0.04 |
| U9A A12C C13U G33U A41G | 0 |

| Variant | self-cleavage |
| --- | --- |
| G1U U28A C45U | 1.13 |
| U9A G30U G44A | 0.07 |
| C15U A24G A26U A41U C42A | 0.1 |
| C8A G19U G33U G36U U38A | 0.17 |
| G2A A4G C23G A24C A26U G27A | 0.01 |
| A16G C18A C23G C37U | 0.05 |
| G1A C10A A16U G21C C46A | 0.06 |
| C3A A6C G19U A26G G27C G29C A41C | 0.1 |
| G7C C10A A14C G17A | 0.01 |
| A12G U20C C37G | 0.01 |
| U9C A11G U28C | 0.01 |
| G1U A11G C13A G19C | 0.01 |
| C31A A39G C46A | 0.02 |
| G2C A16U G17A C37U | 0.07 |
| A6G U9A A11U C13A G19A G27U C45U | 0.02 |
| A12G G19A G36A C45G | 0.02 |
| U20A G29C G33C | 0.19 |
| A6C U9A G27A C37A | 0.13 |
| A26U C31U U38C C45G | 0.02 |
| C10U U34C G40A C42U U43A | 0.04 |
| C10U C15U A16C U38A A39G A41U | 0.01 |
| A16C G19U A25C G29U | 0.08 |
| C10A A12G A16C C45U | 0.01 |
| G1A C3U C13A G21A U34A C46G | 1.37 |

| Variant | self-cleavage |
| --- | --- |
| A12C U28C A39U | 0.02 |
| U9G C10U G27C G35U A41G U43A | 0.02 |
| C23G G36U A39C | 0.08 |
| A25G G29A C31U G33U | 0.11 |
| A6U C18U G33A C42U C46A | 0.11 |
| G7U C23G C42A | 0.02 |
| C8U G21U U28C | 0.03 |
| A4C A14G U28A G44A | 0.03 |
| A4C A14C G35A U38G C42A | 0.03 |
| A11G A16U G22A A24G C37U | 0.01 |
| A12U A26C G30C | 0.2 |
| A4U C15A C42U C46A | 0.02 |
| C8U G19A G36A | 0.66 |
| G2U C3G A4G A11U G17U G21U G29C G36A A39U | 0.01 |
| G1C A14U G19U C37A | 0.04 |
| G2C A25U C31A | 0.04 |
| G1C G36A G40A | 0.09 |
| C10A A14C U28C C45G | 0.01 |
| C3G A24U A25G | 2.34 |
| G21A C42U G44A | 0.18 |
| A6U A11U C13G C37U | 0.01 |
| A4G G22U A41U | 0.75 |
| G5C A11C C13U C18U C23A | 0.01 |
